Data on 39 compounds can be found in ChEMBL document CHEMBL4513135, “CO-ADD screening of IQOG CSIS (Spain) compounds”.

Where “and” joins values, the source holds several entries; their conditions need not be identical. Equal entries are not always repeated. The list shows a part of the results. Measured potencies and affinities stand elsewhere.

By Inhibition is commonly meant the relative decrease from the control value, in per cent.

The test system of this assay is Acinetobacter baumannii. The settings on record: Concentration 32 ug.mL-1, ASSAY_TEST Inhibition of Bacterial Growth, detection method Absorption (OD600), MEDIA CAMHB, plate type 384well, NBS, CORNING #3640, time 18 hr.

In the case of `CCOC(=O)C1=C(C)OC(=O)CC1c1ccccc1` (centres undefined), the Inhibition came out at 4.99%. On the same count and under the same terms, for `Cc1ccccc1C=C(C#N)C#N` the value was -1.06%; for `Cc1ccc(C=C(C#N)C#N)cc1`, 4.83%; for `N#Cc1cc(C#N)c(N2C3CCC2CC3)nc1N`, 0.47%. On the same count and under the same terms, for `CC1CC(=O)Nc2nc3c(c(N)c21)CCCC3` (centres undefined) the value was -1.86%. Still for that read-out and setting: for `CN1CC=C(c2cccn2C)CC1.Cl` the value was 12.02%; for `Cc1ccc(S(=O)(=O)N2[C@H]3CC[C@@H]2CC3)cc1`, 14.13%; for `CCOC(=O)C1=C(OC)OC(=O)CC1c1ccccc1` (centres undefined), 10.2%. Regarding `NNC(=O)c1cn(Cc2ccccc2)c2ccccc12`, the Inhibition is -5.74%. The same measure, in the same setting: with `Cc1nc(N)c(C#N)cc1C(=O)O` the figure was 7.05%; with `CCOC(=O)C1=C(C)NC(=O)CC1c1ccccc1` (centres undefined), 11.92%. The same measure, in the same setting: for `NNCCCc1c[nH]c2ccccc12.O=C(O)/C=C/C(=O)O` the value was -12.17%; for `N#CC(C#N)=Cc1ccc(Cl)cc1`, -8.56%. The same measure, in the same setting: for `CN1CC=C(c2cccn2C)CC1` the value was 11.58%; for `CNCc1cn(C)c2ccc(OC)cc12.Cl`, 7.55%; for `C#CCN1CCc2nc3nc(Cl)c(C#N)cc3c(N)c2C1`, 14.76%. Consider `N#CCC(=O)c1ccccc1`, for which the Inhibition is on record as -1.94%. Still for that read-out and setting: with `Nc1c2c(nc3c1C(c1ccccc1)CC(=O)N3)CCCC2` (centres undefined) the figure was 1.4%; with `Cl.ClCCN1CCCCC1`, 9.08%. Still for that read-out and setting: for `COc1ccc2c(c1)cc(C[N+](C)(C)C)n2C.[I-]` the value was 1.39%; for `C#CCN(C)Cc1cc2cc(OCCCC3CCN(Cc4ccc(OC(=O)N(C)C)c5ncccc45)CC3)ccc2n1C`, 6.07%; for `COc1ccc(C=C(C#N)C#N)cc1OC`, 4.3%. Still for that read-out and setting: with `Cl.ClCCN1CCCC1` the figure was -2.35%. For `C#CCN(C)Cc1cc2cc(OC(=O)N(C)C)ccc2n1C`, the Inhibition is 16.5%. Still for that read-out and setting: with `Nc1c2c(nc3ccccc13)CCN(Cc1ccccc1)C2` the figure was 20.73%. For `CCOC(=O)c1cc2cc(OC(=O)NC3CCN(Cc4ccccc4)CC3)ccc2[nH]1`, the Inhibition came to 5.68%. Same read-out and setting: with `C#CCN1CCc2nc3nc(OC)c(C#N)cc3c(N)c2C1` the figure was 9.91%; with `NNC(=O)c1cccnc1` [NICOTINIC ACID HYDRAZIDE], 4.03%. Take `C#CCN1CCc2nc(N)c(C#N)c(-c3ccccc3)c2C1`: the Inhibition (32 ug/mL) was 11.67% and 3.28%. `C#CCN(C)Cc1cc2cc(OCc3ccc(OC(=O)N(C)C)c4ncccc34)ccc2n1C`: the Inhibition was determined as 9.76%. With `COc1cc(C2C(C#N)=C(N)Oc3c2ccc2ccccc32)cc(OC)c1OC` (centres undefined), the Inhibition came out at 6.08%. As for `CN(C)C(=O)Oc1ccc(CCl)c2cccnc12`, the Inhibition is 12.7%. Still for that read-out and setting: with `CCOc1nc2nc(C)c(C(=O)O)cc2c(-c2ccccc2)c1C#N` the figure was 5.2%; with `CCOC(=O)c1cn(Cc2ccccc2)c2ccccc12`, -8.12%. Regarding `C#CCN1CCc2nc3ncccc3c(N)c2C1.Cl`, the Inhibition is 10.46%. Still for that read-out and setting: with `OCC(Cc1cnc[nH]1)NCc1ccccc1` (centres undefined) the figure was 1.9%; with `O=C(CBr)NCc1ccccc1`, -7.44%; with `[N-]=[N+]=NCC(=O)c1ccc(Br)cc1`, -4.15%.

For `O=C(N1[C@H]2CC[C@@H]1C(c1nnn[nH]1)C2)C(F)(F)F` (some centres undefined), the Inhibition is 17.01%.
